Compound in one experiment: CO[C@H]1C[C@@H]2CC[C@@H](C)[C@@](O)(O2)C(=O)C(=O)N2CCCC[C@H]2C(=O)O[C@H]([C@H](C)C[C@@H]2CC[C@@H](OC(=O)C(C)(CO)CO)[C@H](OC)C2)CC(=O)[C@H](C)/C=C(\C)[C@@H](O)[C@@H](OC)C(=O)[C@H](C)C[C@H](C)/C=C/C=C/C=C/1C [Temsirolimus]
In words: Viability of human cancer cell lines after 72 h of drug (GDSC screen). The following applies: top dose 0.2 µM. On the procedure:
(§1)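 Human cancer cell lines in 384-well plates, medium with 10% serum, drug for 72 h over a 256-fold dose range (nine 2-fold or five 4-fold steps up to the top dose). Adherent lines were fixed and stained with the nucleic acid dye Syto60, suspension lines read with resazurin; signal relative to control wells, capped at 0 and 100%. One two-parameter sigmoid per drug and line, fitted in a mixed model over all curves with the slope shared within a line.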

Compound in a further experiment: C=CC(=O)Nc1ccc(C(=O)c2sc(Nc3ccc(N4CCN(C)CC4)cc3OC)nc2N)cc1 [XMD15-27]
The description is as above. The following applies: top dose 10.24 µM; top dose inferred. On the procedure:
as §1

Here are results for 23 cell lines from the supplement of paper PMC4967469.

IC50 is the fitted dose that halves viability relative to control wells, and lower means more sensitive; a limit (>, <) means that the fit lies beyond the doses tested. For AUC the same curve is integrated over the 256-fold range of doses and scaled to a fraction; it is 1 without any effect and falls as sensitivity rises. For part of these data: The top dose, if marked as inferred, is not printed in the source and was worked back from the curve model. A value given as a limit tells only on which side of the number the result lay.

On to H2722 (mesothelioma, adherent), for which the results for the AUC with Temsirolimus and in the experiment with XMD15-27 were 0.855 and 0.984, respectively. Further, the IC50 was more than 200 nM with Temsirolimus and more than 10200 nM in the experiment with XMD15-27.

For HCC2998 (large intestine, adherent), the AUC with Temsirolimus was 0.975; with XMD15-27, 0.988. For the same cell line, the figures for the IC50 in the experiment with Temsirolimus and in the experiment with XMD15-27 were more than 200 nM and more than 10200 nM, respectively.

Take “HCC-366 (non-small cell lung carcinoma, adherent)”: in the experiment with Temsirolimus, the AUC came to 0.922 and the 50% inhibitory concentration (IC50) was more than 200 nM.

As for HMV-II (melanoma, adherent), in the experiment with Temsirolimus, the AUC amounted to 0.85 and the IC50 is more than 200 nM. Further, in the experiment with XMD15-27, the AUC is 0.971 and the IC50 is more than 10200 nM.

“HOP-92 (large cell lung carcinoma, adherent)”: in the experiment with Temsirolimus, the AUC was found to be 0.824 and the IC50 stood at 144 nM. Besides, in the experiment with XMD15-27, the AUC was 0.985 and the IC50 is more than 10200 nM.

Regarding HSC-4 (head and neck, adherent), in the experiment with Temsirolimus, the AUC was found to be 0.206 and the IC50 came out at 1.22 nM. Further, in the experiment with XMD15-27, the AUC was 0.979 and the half-inhibitory concentration (IC50) is more than 10200 nM.

Consider HT55 (large intestine, adherent), for which the AUC with Temsirolimus was determined as 0.983; with XMD15-27, 0.99. Further, the IC50 with Temsirolimus was more than 200 nM; in the experiment with XMD15-27, more than 10200 nM.

For Hep 3B2_1-7 (liver, adherent), the figures for the AUC in the experiment with Temsirolimus and with XMD15-27 were 0.734 and 0.987, respectively. Besides, the IC50 was 58 nM with Temsirolimus and more than 10200 nM with XMD15-27.

As to JHH-6 (liver, adherent), in the experiment with Temsirolimus, the AUC amounted to 0.909 and the IC50 is more than 200 nM. Also, in the experiment with XMD15-27, the AUC stood at 0.986 and the IC50 is more than 10200 nM.

On to “KASUMI-1 (acute myeloid leukaemia, suspension)”, for which, in the experiment with Temsirolimus, the AUC is 0.845 and the IC50 came to 145 nM. In addition, in the experiment with XMD15-27, the AUC amounted to 0.94 and the IC50 was more than 10200 nM.

Consider KMS-12-BM (myeloma, suspension), for which, in the experiment with Temsirolimus, the AUC is 0.733 and the IC50 amounted to 49.8 nM. Further, in the experiment with XMD15-27, the AUC worked out at 0.949 and the 50% inhibitory concentration (IC50) is more than 10200 nM.

KYSE-70 (oesophagus, adherent): in the experiment with Temsirolimus, the AUC came to 0.905 and the IC50 is more than 200 nM. In the experiment with XMD15-27, the AUC is 0.986 and the concentration for half-maximal inhibition (IC50) was more than 10200 nM.

For LB2241-RCC (kidney, adherent), in the experiment with Temsirolimus, the AUC was 0.64 and the 50% inhibitory concentration (IC50) worked out at 31.9 nM. For the same cell line, in the experiment with XMD15-27, the AUC was found to be 0.984 and the concentration for half-maximal inhibition (IC50) was more than 10200 nM.

For “LOUCY (T-cell lymphoblastic leukaemia, suspension)”, in the experiment with Temsirolimus, the AUC was 0.85 and the IC50 came to 111 nM. Moreover, in the experiment with XMD15-27, the AUC amounted to 0.98 and the IC50 is more than 10200 nM.

Regarding LS-123 (large intestine, adherent), the AUC is 0.933 with Temsirolimus and 0.982 in the experiment with XMD15-27. Also, the IC50 in the experiment with Temsirolimus was more than 200 nM; with XMD15-27 it was more than 10200 nM.

Turning to M14 (melanoma, adherent), in the experiment with Temsirolimus, the AUC is 0.873 and the IC50 was more than 200 nM. For the same cell line, in the experiment with XMD15-27, the AUC came to 0.986 and the IC50 is more than 10200 nM.

In the case of MDA-MB-175-VII (breast, adherent), the AUC with Temsirolimus was 0.85; with XMD15-27, 0.988. Further, the values for the IC50 with Temsirolimus and with XMD15-27 were 175 nM and more than 10200 nM, respectively.

For MKN45 (stomach, adherent), in the experiment with Temsirolimus, the AUC is 0.891 and the IC50 was more than 200 nM. For the same cell line, in the experiment with XMD15-27, the AUC amounted to 0.981 and the half-maximal inhibitory concentration (IC50) was more than 10200 nM.

Consider MS751 (cervix, adherent), for which, in the experiment with Temsirolimus, the AUC was determined as 0.936 and the IC50 is more than 200 nM. In addition, in the experiment with XMD15-27, the AUC was determined as 0.988 and the IC50 is more than 10200 nM.

Regarding Mewo (melanoma, adherent), in the experiment with Temsirolimus, the AUC stood at 0.669 and the IC50 was 40.7 nM. In the experiment with XMD15-27, the AUC amounted to 0.984 and the IC50 was more than 10200 nM.

Turning to “NCI-H292 (lung adenocarcinoma, adherent)”, in the experiment with Temsirolimus, the AUC amounted to 0.494 and the IC50 was 12 nM. Also, in the experiment with XMD15-27, the AUC was determined as 0.952 and the IC50 was more than 10200 nM.

For the cell line “NCI-H441 (lung adenocarcinoma, adherent)”, in the experiment with Temsirolimus, the AUC turned out to be 0.946 and the half-inhibitory concentration (IC50) is more than 200 nM. Moreover, in the experiment with XMD15-27, the AUC was determined as 0.981 and the 50% inhibitory concentration (IC50) is more than 10200 nM.

Consider NCI-H716 (large intestine, suspension), for which the figures for the AUC with Temsirolimus and with XMD15-27 were 0.819 and 0.945, respectively. Moreover, the values for the IC50 with Temsirolimus and with XMD15-27 were 153 nM and more than 10200 nM, respectively.
